± gives the standard deviation of the averaged measurements. Over roughly 33,000 sequences, “E-score (dimensionless, -0.5 to 0.5)” has its median near -0.046; the highest 2% begin near 0.36. The list shows a part of the results.
Tested on: T1, SpTbr T-box DNA-binding domain (GST fusion)
T1 sequence: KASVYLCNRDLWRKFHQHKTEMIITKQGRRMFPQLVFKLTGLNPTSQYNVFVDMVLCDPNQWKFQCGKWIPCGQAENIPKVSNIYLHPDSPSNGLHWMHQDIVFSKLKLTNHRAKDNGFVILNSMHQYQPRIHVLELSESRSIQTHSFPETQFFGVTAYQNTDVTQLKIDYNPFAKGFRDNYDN
Assay: PBM E-score of 8-mer (E-score (dimensionless, -0.5 to 0.5)); Tbr is Tbrain of the sea star Patiria miniata (Pm) or the sea urchin Strongylocentrotus purpuratus (Sp); higher = stronger binding preference; most listed sequences are background and not binding sites
Details: the construct has about 5 more residues each side
Procedure: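 Universal protein-binding microarray (Agilent AMADID 016060, 60-bp probes with a 35-bp variable region) incubated with 200 nM GST-fused Strongylocentrotus purpuratus Tbr T-box DNA-binding domain (residues 362-554) in PBS pH 7.5. Scored for every ungapped 8-mer (given with its reverse complement) as E-score (range -0.5 to 0.5; >0.45 counts as bound) and Z-score of median probe intensity. Two replicate arrays (datasets 1 and 2).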
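Also: protein at 200 nM in PBS on universal double-stranded arrays.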

Sequence | PBM E-score of 8-mer
GGAAACAA | -0.0459 ± 0.05
CCAAACAA | -0.0308 ± 0.027
ACACCATG | 0.364 ± 0.0073
CCGCCCGC | 0.0723 ± 0.021
ATTATTGC | -0.195 ± 0.15
CCTTGTAA | 0.0056 ± 0.066
AAGCCTCG | 0.0181 ± 0.0013
GATCAGAC | -0.265 ± 0.028
TAGATTAA | -0.128 ± 0.053
CCCCTGTA | -0.0431 ± 0.026
CAATCAAA | -0.117 ± 0.077
AACAATCC | 0.00562 ± 0.014
ACACTAAT | 0.176 ± 0.046
CGGCTGTC | 0.006 ± 0.019
CCCGGCTC | -0.317 ± 0.0087
CCTTCGAA | 0.022 ± 0.024
CGAGCGTC | -0.0797 ± 0.014
AGACTCTA | -0.232 ± 0.0089
CCCAACAC | 0.343 ± 0.013
ACTATAAT | -0.221 ± 0.037
CACTATGA | 0.105 ± 0.0092
AGGAAATC | -0.184 ± 0.037
ACGTTGCG | 0.209 ± 0.06
CCACAAAA | 0.163 ± 0.067
CCTGTAAC | 0.175 ± 0.055

Sequence | PBM E-score of 8-mer
GCCATAGC | -0.08917 ± 0.00081
AAATCATC | 0.138 ± 0.11
AGACTCTG | -0.182 ± 0.024
AAAAATGT | 0.0827 ± 0.086
AATGATCC | -0.164 ± 0.052
AGAACAAG | 0.0269 ± 0.081
AAGTAGCT | -0.102 ± 0.019
GTTGTATA | -0.209 ± 0.066
AAGAGGCA | -0.157 ± 0.044
CCAAGCAA | 0.0499 ± 0.028
CACGTGCC | 0.285 ± 0.051
AGTTAGAG | -0.215 ± 0.038
CTGTTTCC | -0.0707 ± 0.063
GTTAGTGA | 0.195 ± 0.032
AGAATTGA | 0.0245 ± 0.021
ACGTGTGC | 0.253 ± 0.017
AAAGTCGG | -0.174 ± 0.071
TTATCCAA | 0.0187 ± 0.056
GACGGAAC | -0.196 ± 0.05
AGCAGTGG | -0.177 ± 0.025
AGGTCTGA | -0.252 ± 0.012
CTGCGACC | 0.159 ± 0.038
AACGCCGA | 0.0424 ± 0.05
AGCGGAAC | -0.168 ± 0.02
GGACAATA | -0.222 ± 0.074

Sequence | PBM E-score of 8-mer
ATAGCGGA | 0.0361 ± 0.014
CTAGCTTA | -0.0478 ± 0.054
ACTCGAGG | 0.0677 ± 0.028
AGAAAAAT | -0.076 ± 0.086
CCTTGCCG | -0.0413 ± 0.053
GACAGCGC | 0.0549 ± 0.0097
CTTTCATC | -0.107 ± 0.065
TCATACGA | 0.0298 ± 0.072
CGCGGCCC | -0.0783 ± 0.14
GAGCTGAC | 0.103 ± 0.0062
CGGAAGAC | -0.014 ± 0.058
CTTTAGCA | 0.147 ± 0.041
GCCTTAAA | -0.175 ± 0.031
ACATGTGG | -0.00104 ± 0.016
AAGTTGGA | -0.131 ± 0.024
CGTTAGGA | -0.0398 ± 0.0099
CGGTTTAA | -0.116 ± 0.0054
CATCAGAC | -0.104 ± 0.011
CACTATTA | 0.157 ± 0.0049
ACGCCCAT | 0.0516 ± 0.054
ACCCATGG | -0.159 ± 0.011
CGATATTA | 0.00962 ± 0.058
CCATGAGG | -0.123 ± 0.004
GCAGAAAA | -0.136 ± 0.033
ATTACTGC | -0.00142 ± 0.047

Sequence | PBM E-score of 8-mer
GTAGAGAA | -0.1514 ± 0.0013
AGCTCCCA | -0.294 ± 0.068
ACCGTGCA | -0.0602 ± 0.027
AAAAACTC | -0.0504 ± 0.074
CCAGAATA | -0.11 ± 0.0078
AACATCTA | -0.0476 ± 0.027
CCAACTAA | 0.000295 ± 0.015
CACGGTCC | 0.0289 ± 0.043
CCACTTCA | 0.108 ± 0.019
CAGATTCA | -0.215 ± 0.006
ACCCTTCC | -0.0367 ± 0.018
GTGGTAAA | 0.243 ± 0.0035
GATTCTGC | -0.189 ± 0.022
GCGATCGA | 0.116 ± 0.055
ATCAAACG | -0.0175 ± 0.066
ACTTCGGC | 0.0408 ± 0.011
ATTGAAAA | -0.199 ± 0.012
ATCCCGAT | -0.127 ± 0.043
GCTAATTA | 0.072 ± 0.084
GAGTTTGC | -0.0217 ± 0.089
CTAAGCTC | -0.159 ± 0.026
ACGGCCCT | -0.129 ± 0.0058
ATGGTGCG | 0.206 ± 0.037
CACTTAAG | 0.223 ± 0.03
GCCCATGA | -0.12 ± 0.051

Sequence | PBM E-score of 8-mer
GCACGCCC | 0.155 ± 0.069
AATCATGT | -0.135 ± 0.015
GGTCCTCA | -0.0127 ± 0.016
AATGGCAG | -0.0149 ± 0.021
AGGTGACA | 0.469 ± 0.015
ACATAACA | 0.292 ± 0.0069
ATATTTGA | -0.174 ± 0.076
ATGCCTTA | -0.254 ± 0.043
AGTCACCA | 0.0942 ± 0.023
CCCGTCTA | -0.134 ± 0.058
GAGGGGAC | -0.161 ± 0.019
CGATTAAC | 0.108 ± 0.048
CATTACCG | -0.044 ± 0.0016
ACAGACCG | -0.146 ± 0.013
ACACATCA | 0.339 ± 0.0072
TCTGGACA | -0.143 ± 0.011
ACTGTCTC | -0.0736 ± 0.085
ACTTAAGT | -0.0767 ± 0.13
ACAGAGCG | -0.0733 ± 0.05
ATTGTGCG | 0.181 ± 0.0048
AGGATTCG | -0.148 ± 0.047
AGCTTCGA | -0.102 ± 0.066
CATGAGTA | 0.0509 ± 0.0025
ATCACAGC | 0.245 ± 0.018
AATGGGCC | -0.182 ± 0.016

Sequence | PBM E-score of 8-mer
CCCTGATC | -0.0811 ± 0.027
CTGTCATA | 0.122 ± 0.036
ACCGGTCG | 0.0125 ± 0.092
CCCATCAC | 0.189 ± 0.031
CGAGAAGC | -0.0137 ± 0.029
CCTGCTAC | 0.138 ± 0.06
ACTCCGCA | -0.0236 ± 0.023
ACAGAACA | -0.0577 ± 0.043
TAGGCGCA | 0.118 ± 0.0051
CCATGGCA | 0.000675 ± 0.061
GCGGAGTA | -0.147 ± 0.037
ACCCGGGA | 0.0278 ± 0.017
CACAATCG | 0.213 ± 0.012
GAAACAGC | -0.0216 ± 0.11
CCGCTAAC | 0.16 ± 0.031
AGGTTACT | -0.22 ± 0.055
CAATATCA | 0.0789 ± 0.05
GTCAGAAC | -0.147 ± 0.006
CAGCGGAA | -0.252 ± 0.074
GGAGTTAC | 0.0424 ± 0.025
GACGATTA | 0.0572 ± 0.03
CCGACCCG | -0.073 ± 0.13
GAAGACGC | -0.00475 ± 0.024
CACCCCGG | 0.277 ± 0.018
AATCACAC | 0.457 ± 0.011

Sequence | PBM E-score of 8-mer
CTATCTTA | -0.208 ± 0.056
GCTAAATA | 0.0681 ± 0.093
CCGGGTGC | 0.26 ± 0.058
CAAATGTA | -0.206 ± 0.029
CTCAACAG | -0.0158 ± 0.036
GGTCGGAA | 0.0715 ± 0.041
AGGACGTA | -0.147 ± 0.024
ATGCACAG | -0.189 ± 0.041
AAAACAGG | -0.046 ± 0.043
CAGTCAAC | 0.0846 ± 0.028
CAGTTTTC | 0.00318 ± 0.023
AGCCTGAG | -0.0927 ± 0.018
AGACAACC | -0.151 ± 0.058
AATGTCAA | 0.0456 ± 0.097
CATTAAGA | -0.175 ± 0.03
AGCAGCCC | -0.138 ± 0.068
ACATAAAG | -0.107 ± 0.029
GGGCTCTA | -0.127 ± 0.064
TATGCAGA | -0.00494 ± 0.043
ACAGGTTC | 0.154 ± 0.0024
AAGTAGGA | 0.0305 ± 0.051
CGATACCG | 0.00715 ± 0.0048
